# Assay results reported in publication PMC6212790.
# The other results are listed elsewhere or left out. At the low end of the ranking the order means little.
# Biological target: T1, GST-Rok (full length) (UniProt O34857)
# T1 sequence: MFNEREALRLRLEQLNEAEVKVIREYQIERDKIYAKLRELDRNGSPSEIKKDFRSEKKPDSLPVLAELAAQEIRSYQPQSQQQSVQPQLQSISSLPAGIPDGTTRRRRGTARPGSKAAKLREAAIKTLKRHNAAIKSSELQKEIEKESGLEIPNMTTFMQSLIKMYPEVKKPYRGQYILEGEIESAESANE
# Assay: protein binding microarray;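 also: rank score from −0.5 (least bound) to 0.5 (best bound)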
# Details: Rok is a gene silencer of Bacillus subtilis; high values mean tight binding; most listed sequences are background and not binding sites; double strand, one strand shown
row,Sequence,binding signal [E-score]
1,AATCGCCA,0.0424
2,ATTTGTGG,0.111
3,GCTACCCA,-0.0944
4,AACATCCG,-0.00657
5,AACACTAT,0.259
6,ATACGTAA,0.323
7,ACTCGACA,-0.00791
8,AGTTTGGG,-0.00909
9,CGCCGACA,-0.0606
10,TCCGGACA,-0.14
11,GGTCCCGA,-0.0815
12,AAAAAAGA,-0.0517
13,CCCGGAAC,-0.25
14,CCCTCTTA,-0.246
15,GTACCGTA,0.149
16,CAAGCTGG,-0.295
17,CGTCCCAC,-0.0484
18,CCAACTAA,0.178
19,CACGTGCG,-0.102
20,AATCATCA,0.11
21,CTCCCGCA,-0.274
22,GTATTTCA,0.187
23,CCTTGGTA,-0.186
24,TGGCCGAA,-0.123

row,Sequence,binding signal [E-score]
1,CAACACGA,-0.164
2,AGTTCGGC,0.0497
3,CCCATCTC,-0.264
4,CAATGTCG,-0.0271
5,CCTCGTAG,-0.0355
6,ACTTGAGC,0.0826
7,CCTTCGCC,-0.245
8,CACGGTTC,-0.189
9,GCCCGTTA,-0.231
10,CAATAGTC,0.101
11,ATGGTGGA,-0.0265
12,CTCCGCGC,-0.218
13,AGAGGCCC,-0.331
14,GGTCGAAC,-0.135
15,CGGTGAGC,-0.281
16,ACCGTGAG,-0.0381
17,CACCTCAC,-0.0372
18,CCAAGGCG,-0.401
19,CCGGCGGA,-0.365
20,TCAACAAA,0.00449
21,AAGTGTAT,0.255
22,CTAGCGAG,-0.000369
23,CCTTTAGA,-0.161
24,GACTCGCC,-0.337

row,Sequence,binding signal [E-score]
1,GGAGTACC,-0.17
2,ACGTATTC,0.104
3,ACCGCTCT,-0.204
4,CGATTCAA,0.0363
5,ACTCCAGG,-0.338
6,TAGGGACA,-0.214
7,GCTTCCAA,-0.0659
8,ATGAGCAC,0.0381
9,AGTTTCTG,0.134
10,CATATATG,0.343
11,ATCTCCCA,-0.0952
12,CGGTTGCA,-0.077
13,GTAGATGA,0.255
14,ATGTACTG,0.196
15,TGCGGAAA,0.21
16,AAATACGC,0.0877
17,CATACATG,0.143
18,GTAGGAAC,0.0415
19,GTTCAGTA,0.245
20,GCTACTCC,-0.125
21,AGAACTAA,0.254
22,CTCGTCTA,-0.0969
23,AAGATCGT,0.0466
24,ACCCCTTC,-0.369

row,Sequence,binding signal [E-score]
1,CAGAACTA,0.301
2,GGTCCCAC,-0.289
3,CTGCCCTA,-0.179
4,CCCCAAGC,-0.236
5,AAGGGCGA,-0.167
6,CAATCTCA,0.0216
7,CATGGATA,0.0452
8,GGTCCAAC,-0.199
9,AGGACACC,-0.188
10,TCCAACGA,-0.106
11,TGGGTCAA,0.0132
12,AAAAGACA,0.114
13,GACGACTA,0.172
14,GTGAGAAA,0.118
15,AACAAGAA,0.0112
16,ACATAGAC,0.0568
17,CTCGGCAC,-0.15
18,GCGTCCCA,-0.293
19,CCTCTCAA,-0.193
20,AACTACAA,0.34
21,CCCCTACA,-0.143
22,GGATAAAA,0.144
